Data as given in the supplement of paper PMC3334620.
In all, about 33,000 sequences were measured (“E-score (-0.5 to 0.5)”: median about -0.016, highest 2% from about 0.32 on). The list shows a part of the results.

Each sequence was assayed against T1, Stp1 (UniProt B3LFK1) (assay: PBM E-score (8-mer binding enrichment) (E-score (-0.5 to 0.5)); higher = stronger / more preferred TF binding; most listed sequences are background and not binding sites). Conditions: protein concentration: 200 nM; construct: GST-full length.
T1 sequence: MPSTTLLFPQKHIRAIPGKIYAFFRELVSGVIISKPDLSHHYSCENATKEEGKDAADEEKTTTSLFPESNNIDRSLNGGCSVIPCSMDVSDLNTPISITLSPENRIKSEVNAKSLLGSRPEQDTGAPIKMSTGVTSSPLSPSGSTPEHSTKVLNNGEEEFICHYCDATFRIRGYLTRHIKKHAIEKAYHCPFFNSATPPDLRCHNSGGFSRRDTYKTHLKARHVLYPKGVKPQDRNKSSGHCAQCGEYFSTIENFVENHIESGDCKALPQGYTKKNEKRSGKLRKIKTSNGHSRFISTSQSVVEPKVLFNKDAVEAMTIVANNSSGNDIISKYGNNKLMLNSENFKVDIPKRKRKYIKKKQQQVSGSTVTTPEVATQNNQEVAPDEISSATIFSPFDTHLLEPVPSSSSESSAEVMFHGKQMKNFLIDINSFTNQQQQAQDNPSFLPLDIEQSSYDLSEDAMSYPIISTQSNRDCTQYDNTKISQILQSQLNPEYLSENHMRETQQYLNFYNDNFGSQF
Summary of the method: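 Using PURExpress in vitro transcription/translation, GST-tagged yeast transcription factors were made in full-length or DNA-binding-domain form. These were applied at about 100-200 nM to double-stranded universal all-10-mer Agilent arrays, and bound protein was detected with fluorescent anti-GST. Scans were normalised with masliner before the Universal PBM Analysis Suite assigned E-scores to ungapped eight-base words pooled with their reverse complements.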

| Sequence | PBM E-score |
| --- | --- |
| CATCGTCC | -0.046 |
| CAGGAGCA | -0.125 |
| AGGACAGG | -0.181 |
| AAAGGTTG | -0.251 |
| CCTGACGC | -0.118 |
| CAAAAATG | 0.167 |
| AGAACTTC | -0.0546 |
| GCTAGGCC | 0.0402 |
| AACTATGG | -0.0973 |
| AGTATTAT | -0.051 |
| GAAGATAC | -0.111 |
| TAATGTCA | -0.164 |
| CCCACCCA | -0.0405 |
| AACTAGGA | -0.0432 |
| CTATTTGA | 0.177 |
| AGATTGTC | 0.0173 |
| GGAGTCAA | -0.268 |
| GGCGAATA | 0.0901 |
| GCACTAAA | 0.204 |
| ACTGGACG | -0.112 |
| CAGCTGGA | 0.148 |
| GTTAACGA | -0.125 |

| Sequence | PBM E-score |
| --- | --- |
| ACCAGAGA | -0.117 |
| CTTTACAA | 0.0348 |
| CTTCTTGA | -0.0804 |
| CTATCACC | -0.189 |
| AGACGCTC | -0.255 |
| AGATCCCA | -0.193 |
| CCGACCCC | -0.296 |
| AAGGCTCC | 0.0473 |
| AACGAACG | 0.11 |
| CTTGTCTA | 0.0651 |
| AAATACGT | 0.035 |
| CTCTGCGA | -0.0569 |
| CTCGTTAC | -0.23 |
| TATGTCGA | 0.123 |
| CAATCCTA | -0.159 |
| AGTCGGGG | -0.299 |
| AGACCTAG | -0.0729 |
| AACTAGTG | -0.0733 |
| CGTCCGAG | 0.0238 |
| ACGCGGGG | 0.174 |
| CACTGCTA | 0.0298 |
| CCCCTAGC | -0.385 |

| Sequence | PBM E-score |
| --- | --- |
| GGCACGCA | 0.288 |
| ACAGTAAC | 0.00178 |
| AGGACATG | -0.199 |
| TCGAGCAA | 0.231 |
| CCTTAAGC | -0.014 |
| CGACGAGC | -0.0983 |
| ACTGGGGC | -0.164 |
| TCGGAGAA | -0.0369 |
| AACAATCG | -0.026 |
| CGGTCTAC | -0.0644 |
| GATAACCA | -0.136 |
| CGTTAGTA | 0.301 |
| ATAGGCGA | -0.0945 |
| GGCTGACC | -0.271 |
| CAGCGTTA | 0.0111 |
| TAAATAAA | 0.196 |
| GACAGGTC | -0.394 |
| GCAGGCGA | 0.0012 |
| CGGACTTA | -0.241 |
| AACACGGA | 0.199 |
| ATAGTGCG | 0.175 |
| CATCTACC | -0.11 |

| Sequence | PBM E-score |
| --- | --- |
| CCGGCCAC | -0.189 |
| AAGGGCGC | 0.354 |
| AGGTATGC | 0.0967 |
| ACTAAGTA | 0.0607 |
| ACTAGTTG | -0.129 |
| GTACAGAC | -0.0182 |
| CACAGTAG | 0.173 |
| CCATCTTA | 0.13 |
| CGAGGGAG | -0.172 |
| AATCGGTC | -0.0468 |
| CTCAAACC | 0.0212 |
| AATGGCGG | -0.116 |
| ATGCTGCG | -0.0894 |
| CCCTCTGC | -0.196 |
| CCGATACA | -0.0287 |
| CCCTCTAG | -0.219 |
| CAAAATTG | 0.0955 |
| CACAATGA | 0.0109 |
| ATCCATCG | -0.177 |
| ATGTAGAG | -0.173 |
